Source: PubChem BioAssay AID588855 (National Center for Advancing Translational Sciences (NCATS), 2011)
Out of some 410,000 compounds screened, about 5,000 (1.2%) were called active. This list was built around the results that the source calls inconclusive (neither active nor inactive); the mix of calls is not that of the screen. The call rests on the fitted dose curve; in most records, active means well fitted inhibition curve with a large enough effect; inconclusive means small, poorly fitted or top-dose-only effect; inactive means no such curve, though single readings can be large or run the other way. Potencies beside an inconclusive call are fits to weak or partial responses and may not hold up.

Assay: qHTS for Inhibitors of TGF-b; further: nearly all actives have a fitted effect of over 65% in size
Settings: HepG2 CAGA-GFP TGF-b/SMAD3 reporter, GFP fluorescence, 18 h, TGF-beta stimulated, 500 pg/mL final; series mostly up to 46.1 µM
Outline: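 Inhibition of TGF-beta-driven CAGA-GFP reporter expression in HEPG2 cells is measured by cellular GFP fluorescence after 18 h stimulation with 500 pg/mL recombinant TGF-beta in 1% FBS medium at 37 degrees C.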
Potency means the concentration at half of the fitted maximal effect; tags describe the fitted curve by direction and shape.

| Structure (SMILES) | Potency |
| --- | --- |
| Cn1ccnc1SCC(=O)N1CCc2ccccc21 | inactive |
| Cc1nc(SCc2cc(=O)c3cccc(F)c3[nH]2)n[nH]1 | inactive |
| COc1ccc(CC(=O)Nc2ccccc2C(F)(F)F)cc1S(=O)(=O)N1CCOCC1 | inactive |
| COc1cccc(CNC(=O)CCn2ccc3cc(S(=O)(=O)N4CCC(C)CC4)ccc32)c1 | inactive |
| CCOc1ccc(C(C)=O)cc1COC(=O)c1ccc2c(c1)NC(=O)CS2 | inconclusive: 11.2 µM [inhibitor, partial curve, poor fit] |
| Cc1cc(C)nc(NS(=O)(=O)c2ccc(N/C=C/C(=O)c3ccc(Cl)cc3)cc2)n1 | inconclusive: 35.5 µM [inhibitor, partial curve, poor fit] |
| CCOC(=O)/C(C#N)=C/c1cc2cc(C)c(C)cc2nc1Cl | inactive |
| CCN1CCc2c(sc(NC(=O)c3ccc(S(=O)(=O)N(C)C4CCCCC4)cc3)c2C(N)=O)C1 | inconclusive: 12.6 µM [inhibitor, single point] |
| COc1ccc(CN(C)CC(=O)Nc2cc3oc4ccccc4c3cc2OC)c(OC)c1 | inconclusive: 20 µM [inhibitor, single point] |
| CC1CCN(c2ccc(/C=C(\C#N)c3nn(-c4ccccc4)c(N)c3C#N)cc2[N+](=O)[O-])CC1 | inconclusive: 3.98 µM [inhibitor, single point] |
| CC1Cc2cc(S(=O)(=O)CCC(=O)Nc3ccc(F)cc3)ccc2N1C(=O)C1CC1 (stereo not drawn) | inconclusive: 35.5 µM [inhibitor, single point] |
| COc1ccc(OC)c(C2C(C(=O)c3ccccc3)=C(C)Nc3nc4ccccc4n32)c1 (stereo not drawn) | inconclusive: 35.5 µM [inhibitor, single point] |
| Cc1ccc(-n2nc3c(=O)n(C(C)C(=O)NCCc4cccs4)nc(C)c3c2C)cc1 (stereo not drawn) | inconclusive: 20 µM [inhibitor, partial curve] |
| CC(=O)O[C@]1(C(C)=O)CC[C@H]2[C@@H]3C=C(Cl)C4=CC(=O)[C@@H]5C[C@@H]5[C@]4(C)[C@H]3CC[C@@]21C | inconclusive: 35.5 µM [inhibitor, single point] |
| COc1ccc(Br)cc1[C@H]1[C@@H]2C=CCC[C@@]2(C)C(=O)N1Cc1ccccc1 | inconclusive: 35.5 µM [inhibitor, single point] |
| O=C(C(O)c1ccc(Br)cc1)N1CCC(Nc2ccc3[nH]ncc3c2)CC1 (stereo not drawn) | inactive |
| CCn1c(COc2ccccc2Cl)nnc1SCC(=O)Nc1ncccc1C | inconclusive: 20 µM [inhibitor, partial curve, poor fit] |
| O=C(CCl)NC1(C(=O)O)CCCC1 | inactive |
| CCOc1cc(C(=O)NCC(C)(C)CNC(=O)c2cc(OCC)c(OCC)c(OCC)c2)cc(OCC)c1OCC | inconclusive: 14.1 µM [inhibitor, partial curve, poor fit] |
| COc1ccc(/C(O)=C2/C(=O)C(=O)N(CCN(C)C)C2c2ccc(C)cc2)cc1Cl (stereo not drawn) | inconclusive: 3.98 µM [inhibitor, single point] |
| COc1cc(OC)cc(C(=O)Nc2ccc3nc4c(c(Nc5ccc(OC)c(OC)c5)c3c2)CCCC4)c1 | active: 12.6 µM |
| CNC(=S)N/N=C/c1ccc(N2CCOCC2)s1 | inconclusive: 1.78 µM [inhibitor, full curve, poor fit] |
| CCCCc1ccc(Nc2cc(C)nc(-n3nc(C)cc3C)n2)cc1 | inconclusive: 10 µM [inhibitor, partial curve, poor fit] |

| Structure (SMILES) | Potency |
| --- | --- |
| O=C(Cc1cccs1)NCCS(=O)(=O)N1CCN(c2cccc(Cl)c2)CC1 | inconclusive: 25.1 µM [inhibitor, single point] |
| COc1cc(OC)cc(C(=O)NC(C)c2ccc(Br)cc2)c1 (stereo not drawn) | inactive |
| Cc1nn(-c2ccccc2)c2c1C1(C(=O)Nc3ccccc31)N1C(=N2)Sc2ccccc21 (stereo not drawn) | inconclusive: 35.5 µM [inhibitor, single point] |
| CC1CCCCN1C(=O)COC(=O)c1cc([N+](=O)[O-])ccc1N (stereo not drawn) | inactive |
| O=C1N(c2ccccc2)C[C@@H]2C[C@@H](c3cccs3)N3CCC[C@@]123 | inconclusive: 25.1 µM [inhibitor, single point] |
| CCOC(=O)Nc1ccc(C(=O)/C=C/c2ccccc2)cc1 | inconclusive: 22.4 µM [inhibitor, single point] |
| CCCCNC(=O)CC1Nc2cc(C)c(C)cc2NC1=O (stereo not drawn) | inactive |
| S=C(NCCCN(Cc1ccc(Cl)cc1)c1ccc(Br)cn1)NCc1ccc2nc[nH]c2c1 | inconclusive: 35.5 µM [inhibitor, single point] |
| COc1ccccc1NC(=O)c1nn(C)c2c1CS(=O)(=O)c1ccccc1-2 | inactive |
| CCOc1ccc(NC(=O)Nc2ccc(Cc3ccncc3)cc2)cc1 | inactive |
| CN(C)S(=O)(=O)c1ccc(C(=O)NCCSc2c(-c3ccc(Br)cc3)[nH]c3ccccc23)cc1 | inconclusive: 6.31 µM [inhibitor, full curve, poor fit] |
| CN(C)CCCN(C(=O)c1ccc(C(=O)c2ccccc2)cc1)c1nc2cc3c(cc2s1)OCO3 | inconclusive: 25.1 µM [inhibitor, single point] |
| Cc1cc(NS(=O)(=O)c2ccc(NC(=S)NCc3ccccc3)cc2)no1 | inactive |
| O=C(Cn1nc(Cc2ccncc2)c2ccccc2c1=O)Nc1cccc(C(F)(F)F)c1 | inconclusive: 35.5 µM [inhibitor, single point] |
| CNC(=O)c1c(NC(=O)c2cc(=O)c3cc(C)c(C)cc3o2)sc2c1CCCC2 | inactive |
| CCN(CC)CCN(C(=O)c1ccco1)c1nc2c(C)c(C)ccc2s1 | inconclusive: 10 µM [inhibitor, partial curve] |
| COc1ccccc1CNC(=O)Cn1c(-c2ccc(F)cc2)cc(C(C)=O)c1C | inconclusive: 5.62 µM [inhibitor, single point] |
| Cc1ccc(CSCCC(=O)N2CCN(c3ccc(F)cc3)CC2)cc1 | inconclusive: 28.2 µM [inhibitor, partial curve, poor fit] |
| CCn1c(=O)cc(OCC(=O)N2CCN(c3ccc(C(C)=O)cc3)CC2)c2ccccc21 | inactive |
| O=C(Cc1csc(NC(=O)Nc2cccc(Cl)c2)n1)NC1CCCC1 | inconclusive: 25.1 µM [inhibitor, single point] |
| CC(=O)c1ccc(NS(=O)(=O)c2ccc(C(C)(C)C)cc2)cc1 | inconclusive: 17.8 µM [inhibitor, single point] |
| CC(C)c1ccc(OC(=O)c2ccc3c(=O)n4c(nc3c2)CCC4)cc1 | inactive |
| CC(C)C(=O)NC(Nc1ccccc1F)C(Cl)(Cl)Cl (stereo not drawn) | inactive |

| Structure (SMILES) | Potency |
| --- | --- |
| Cc1cccc(NC(=O)c2nc[nH]c2C(=O)N[C@@H](CC(C)C)C(=O)OC(C)(C)C)c1 | inconclusive: 35.5 µM [inhibitor, single point] |
| Cc1ccc(C(=O)CCNc2ccc(Br)cc2)o1 | inactive |
| COc1cccc(S(=O)(=O)NCC(=O)N2CCCC2)c1 | inactive |
| Cc1ccc(S(=O)(=O)C(CNC(=O)COc2ccccc2)c2cccs2)cc1 (stereo not drawn) | inconclusive: 1.26 µM [inhibitor, full curve, poor fit] |
| CCOC(=O)C1(Cc2ccccc2)CCCN(S(=O)(=O)N(C)C)C1 (stereo not drawn) | inactive |
| COc1ccc(NC(=O)CNS(=O)(=O)c2ccc3nc(C)sc3c2)c(OC)c1 | inactive |
| COc1ccc(C2NC(=O)NC3=C2CCc2ccccc23)cc1 (stereo not drawn) | inconclusive: 14.1 µM [inhibitor, single point] |
| C[C@H]1CN(C2CCCCC2)C(=O)[C@@H]1CC(=O)NCc1ccccc1 | inconclusive: 35.5 µM [inhibitor, single point] |
| C[C@H](CO)N1C[C@H](C)[C@H](CN(C)C(=O)Nc2ccc(F)cc2)Oc2c(NC(=O)c3ccc(-c4nccs4)cc3)cccc2C1=O | inconclusive: 10 µM [inhibitor, partial curve] |
| COc1ccc(-n2c(SCC(=O)C(C)(C)C)nc3c(sc(=S)n3-c3ccccc3)c2=O)c(OC)c1 | inactive |
| O=C(N/N=C/c1ccc(Br)s1)c1ccccc1[N+](=O)[O-] | inconclusive: 28.2 µM [inhibitor, single point] |
| Cc1cc(C)nc(Nc2nc(C(N)Cc3ccc(F)cc3)cs2)n1 (stereo not drawn) | inconclusive: 22.4 µM [inhibitor, single point] |
| Cc1ccc2c(=O)n3c(nc2c1)C(Cc1ccc(O)cc1)NC(=O)c1cccnc1-3 (stereo not drawn) | inconclusive: 0.794 µM [inhibitor, full curve] |
| O=C(O)c1cccc(N/N=C/c2sc(N3CCOCC3)nc2-c2ccccc2)c1 | inactive |
| CC(=O)Nc1sc(N/N=C\c2ccc(O)cc2)nc1-c1cccs1 | inactive |
| Cc1cc2occ(CC(=O)NCc3cccs3)c2cc1C(C)C | inconclusive: 15.8 µM [inhibitor, partial curve, poor fit] |
| CCOC(=O)N1CCC(N(CCN(C)C)C(=S)Nc2cc(Cl)ccc2C)CC1 | inactive |
| O=C(Nc1ccc(Cl)cc1C(=O)Nc1ccncc1)c1ccco1 | inconclusive: 35.5 µM [inhibitor, single point] |
| CCOC(=O)c1c(NC(=O)CCl)sc(CN(C)C)c1-c1ccccc1 | inconclusive: 35.5 µM [inhibitor, partial curve, poor fit] |
| COc1ccc2c(c1)c1c(c(=O)n(-c3ccccc3C)c(=O)n1CC(N)=O)n2C | inactive |
| COC(CNC(=O)c1cccc2c1C(=O)N(Cc1cccnc1)C2)OC | inactive |
| CCc1ccc(NS(=O)(=O)c2ccc3[nH]cc(C(=O)N4CCc5ccccc54)c(=O)c3c2)cc1 | inactive |
